In general, % Inhibition refers to the relative decrease from the control value, in per cent.

Among all 150,000 compounds or so, about 540 (0.36%) showed an effect of 50% or more. Some of the results follow.

For this test, the system named is Plasmodium falciparum. Description: Primary screen in NF54 nanoGlo assay, in single point, at 2uM, 72h; a lower Z score goes with more inhibition. It counts as functional, Erythrocyte. The following applies: timepoint 72 hour.
In the case of `CC(=O)N1CCC[C@@](NCCN2CCOCC2)(c2nnnn2CCC(C)C)C1`, the “% Inhibition” value is given as -10% and the Z score is 1.37.
As for `Cc1oc(-c2cc(F)cc(F)c2)nc1CN1CC[C@H](O)[C@@H](O)C1`, the “% Inhibition” value is reported as -5% and the Z score stood at 0.44.
For `CCc1ccsc1CNC(=NC)NCc1ncnn1C`, in that order: -6% and 0.59.
For `CC(C)(C)OC(=O)N1CCC(CCn2nc(C#N)ccc2=O)CC1`, the “% Inhibition” value is -3% and the Z score was 0.42.
Take `Cc1nsc(C(=O)NCc2cccnc2)n1`: the “% Inhibition” value is on record as -9% and the Z score is reported as 1.48.
`CN(C)CCc1nnc(NC(=O)c2cc(C(F)F)[nH]n2)s1`: the “% Inhibition” value is recorded as 4% and the Z score was -0.65.
On the same counts, the results for `COc1ccc(-n2ccn3cc(-c4ccc(C)cc4C)nc3c2=O)cc1Cl` are -3% and 0.4.
For `O=C(NCc1c(O)ccc2c1CCCC2)c1ncoc1[C@@H]1CCCO1`, in that order: -19% and 3.27.
For `COC(=O)c1nc(-c2ccc(C)cc2)oc1S(=O)(=O)c1cccc(OC)c1`, in that order: 2% and -0.22.
As for `Cc1nnsc1C(=O)N1CC[C@H](N(C(=O)c2snnc2C)C2CC2)C1`, the “% Inhibition” value worked out at 3% and the Z score is -0.6.
Regarding `Cn1ncc2c(=O)n(Cc3nnc(C(F)(F)F)s3)cnc21`, the “% Inhibition” value is listed as -4% and the Z score is 0.72.
Turning to `CC1OCCC12CN(CCC(=O)Nc1ccccc1Cl)CCO2` (centres undefined), the “% Inhibition” value is 1% and the Z score is -0.12.
On the same counts, the results for `Cc1nn(C)c(C)c1CC(C)C(=O)N1CC2OCCN(C)C2C1` (centres undefined) are -14% and 1.6.
On the same counts, the results for `O=C(c1cc2cc(F)ccc2s1)N1CCC[C@H]1c1nc2ccccc2s1` are -12% and 1.56.
Take `Cc1nc(NCC2(Cn3ccnc3C)CC2)c2c(C)nn(C)c2n1`: the “% Inhibition” value is -13% and the Z score stood at 2.5.
On to `COCCC1(CNC(=O)NCc2ccsc2)CCC1`, for which the “% Inhibition” value was found to be 2% and the Z score is recorded as -0.24.
Take `O=C(CN1CCC[C@H]1c1ccccc1)Nc1nnc(-c2ccccc2)o1`: the “% Inhibition” value is on record as -3% and the Z score is on record as 0.39.
On the same counts, the results for `COc1ccc([C@H](C)N(C)C(=O)c2ccn(C)c2C)cc1` are -5% and 0.96.
Consider `Cc1ccccc1S(=O)(=O)N(C)CCc1noc(C2CCCCC2)n1`, for which the “% Inhibition” value is listed as -9% and the Z score is on record as 0.88.
For `CC(C)N(C)C(=O)NC1CC2CCCCN2C1=O` (centres undefined), in that order: -1% and 0.1.
On the same counts, the results for `CCN(CC)CC1(NC(=O)c2cccc(Cl)c2Cl)CC1` are 1% and -0.1.
On the same counts, the results for `O=C(C[C@@H]1NC(=O)N(CCc2c[nH]c3ccccc23)C1=O)N1CCCC1` are -12% and 1.72.
Consider `C[C@H](NC(=O)NCCCS(C)(=O)=O)C1CCCCC1`, for which the “% Inhibition” value is -5% and the Z score is listed as 0.64.
Take `CCc1noc2nc(CCC(=O)N[C@@H](C)Cc3ccco3)nc(N3CCCCC3)c12`: the “% Inhibition” value is reported as -9% and the Z score is recorded as 1.4.
For `C[C@H]1CCCN(C(=O)c2ccc3[nH]ncc3n2)C1`, in that order: 1% and -0.08.
For `CC(=O)N1CCC(N2C[C@@H]3NC(=O)CN(C4CC4)Cc4cccc(c4)Oc4cccc(c4)CO[C@H]3C2)CC1`, in that order: 13% and -1.86.
On to `CN(CC1(CO)CCCC1)c1ncc(C#N)c(N)n1`, for which the “% Inhibition” value is given as -8% and the Z score is reported as 1.59.
For `Cc1cc(C)c2[nH]c(C(=O)N(C[C@H]3CCC(=O)N3)C(C)C)c(C)c2c1`, in that order: -11% and 1.01.
As to `C[C@H](NC(=O)c1cccs1)C(C)(C)C`, the “% Inhibition” value is recorded as 1% and the Z score was -0.16.
For `COc1cc(Cc2nnc(C(=O)NCCc3ccccc3)o2)cc(OC)c1OC`, the “% Inhibition” value is -2% and the Z score stood at 0.38.
Consider `COc1ccc(CN2CCN(c3ccc(NS(=O)(=O)c4ccc(F)cc4)cn3)CC2)cc1`, for which the “% Inhibition” value is recorded as 1% and the Z score is listed as -0.19.
On the same counts, the results for `CCOC(=O)c1ncn(C2CCN(C(=O)Nc3ccc(OCC)cc3)CC2)c1N` are -10% and 1.14.
For `CN1C(=O)C[C@H](C(=O)N2CC(CC(F)F)C2)[C@H]1c1nccn1C`, in that order: -3% and 0.53.
On the same counts, the results for `Cc1cc(C)cc(/N=C(/NC(=O)c2cccc(Br)c2)N2CCN(C3CCCCC3)CC2)c1` are -1% and 0.2.
For `CCCOc1cncc(-c2ccc3c(c2)NC(=O)C32CC2)c1`, the “% Inhibition” value is -2% and the Z score amounted to 0.28.
For `Cc1cc(Br)c2[nH]nc(NC(=O)[C@@H]3COCCO3)c2c1`, in that order: 5% and -0.94.
For `O=S1(=O)CC[C@H](CNS(=O)(=O)c2ccc(F)cc2)C1`, in that order: -3% and 0.39.
Consider `CCCN(C(=O)CN1CCN(CC)CC1)[C@H]1CCCC[C@@H]1O`, for which the “% Inhibition” value is given as -7% and the Z score is reported as 1.5.
On to `Cc1cc(C)nc(NC(=O)N(C)CC2(O)CCCC2)c1`, for which the “% Inhibition” value is on record as -6% and the Z score is 1.1.
For `COCCn1c(CO)nnc1[C@H]1C[C@@H](NC(=O)C2(C)CCCCC2)C1`, in that order: -10% and 2.
Consider `O=C(O)c1ccccc1CN1C[C@@H]2CC[C@H]1CN(C1CCOCC1)C2`, for which the “% Inhibition” value was 0% and the Z score came out at 0.03.
Consider `CNC(=O)c1[nH]nc2c1CN(CCOc1ccc(C)cc1OC)CC2`, for which the “% Inhibition” value is -13% and the Z score was found to be 1.39.

These data come from ChEMBL document CHEMBL4888484, “Replenishing the malaria drug discovery pipeline: Screening and hit evaluation of the MMV Hit Generation Library 1 (HGL1) against asexual blood stage Plasmodium falciparum ,using a nano luciferase reporter read-out” (2022).
